From the supplement of paper PMC12462457
Structures can show the parent of a compound that is named as a salt. ± gives the standard deviation of the averaged measurements. Some of the results follow.

Tested on: OVCAR8
Assay: cell count relative to DMSO vehicle (fold change); OVCAR8 is a high-grade serous ovarian cancer line and CX-5461 an RNA polymerase I inhibitor; higher = more surviving senescent cells (less killing)
Conditions: senescence inducer: CX-5461 3 µM 48 h, then 6 d recovery (CX senescent), exposure time 24 h

Structure (SMILES)	cell count (compound dose 1 µM)	cell count (compound dose 5 µM)
CCn1cc(-c2ccnc3[nH]c(-c4cccc(CN(C)C)c4)cc23)c(-c2ccc(NC(=O)N(C)C)cc2)n1	0.94 ± 0.086	0.823 ± 0.24
CCCCCCC/C=C/C(=O)CCc1ccc(O)c(OC)c1 [[8]-Shogaol]	1.13 ± 0.13	1.05 ± 0.051
C[C@@H]1O[C@@H](O[C@@H]2[C@@H](O)[C@H](OCCc3ccc(O)c(O)c3)O[C@H](CO)[C@H]2OC(=O)/C=C/c2ccc(O)c(O)c2)[C@H](O)[C@H](O)[C@H]1O [Verbascoside]	1.13 ± 0.22	1.13 ± 0.32
O=C(O[C@@H]1Cc2c(O)cc(O)cc2O[C@@H]1c1cc(O)c(O)c(O)c1)c1cc(O)c(O)c(O)c1 [(-)-Epigallocatechin Gallate]	0.954 ± 0.22	1.13 ± 0.049
Cc1cnc(Nc2ccc(N3CCN(C)CC3)cc2)nc1Nc1cccc(S(=O)(=O)NC(C)(C)C)c1	0.896 ± 0.096	0.194 ± 0.16
COc1ccc(-c2oc3c(CC=C(C)C)c(O)cc(O)c3c(=O)c2O[C@@H]2O[C@@H](C)[C@H](O)[C@@H](O)[C@H]2O)cc1 [Baohuoside I]	0.974 ± 0.2	0.899 ± 0.067
OCC1(O)COc2cc(O)ccc2-c2cc(O)c(O)cc2C1 (configuration not stated) [Protosappanin B]	1.18 ± 0.031	1.06 ± 0.049
CC[C@@]1(O)C(=O)OCc2c1cc1n(c2=O)Cc2cc3cc(O)ccc3nc2-1 [(S)-10-Hydroxycamptothecin]	0.795 ± 0.14	0.655 ± 0.013
CN1CCN(CCCNc2ncc(Cl)c(-c3cc4c(C(=O)NC5CC5)cccc4s3)n2)CC1	1.18 ± 0.19	1.13 ± 0.038
NC1(c2ccc(-c3nc4ccn5c(=O)[nH]nc5c4cc3-c3ccccc3)cc2)CCC1 [MK-2206 (dihydrochloride)]	1.04 ± 0.21	1.06 ± 0.18
CC(C)=CCC[C@@H](C(=O)O)[C@H]1CC[C@@]2(C)C3=CC[C@H]4C(C)(C)[C@@H](O)CC[C@]4(C)C3=CC[C@]12C [3-Dehydrotrametenolic acid]	1.01 ± 0.16	0.966 ± 0.13
C[C@@H]1O[C@@H](Oc2c(-c3ccc(O)c(O)c3)oc3cc(O)cc(O)c3c2=O)[C@H](O)[C@H](O)[C@H]1O [Quercitrin]	1.06 ± 0.23	1.07 ± 0.1
C[C@@H]1CC[C@@]2(NC1)O[C@H]1C[C@H]3[C@@H]4CC=C5C[C@@H](O[C@@H]6O[C@H](CO)[C@@H](O[C@@H]7O[C@@H](C)[C@H](O)[C@@H](O)[C@H]7O)[C@H](O)[C@H]6O[C@@H]6O[C@@H](C)[C@H](O)[C@@H](O)[C@H]6O)CC[C@]5(C)[C@H]4CC[C@]3(C)[C@H]1[C@@H]2C [Solamargine]	0.998 ± 0.12	0.0105 ± 0.0064
O=C(O)Cc1ccccc1Nc1c(Cl)cccc1Cl [Diclofenac (potassium)]	1.12 ± 0.047	1.06 ± 0.11
O=C(O)Cc1ccccc1Nc1c(Cl)cccc1Cl	1.137 ± 0.011	1.13 ± 0.053
O=C(O)Cc1ccccc1Nc1c(Cl)cccc1Cl [Diclofenac]	1.06 ± 0.017	1.02 ± 0.025
